# Results as given in PubChem BioAssay AID1745853 (National Center for Advancing Translational Sciences (NCATS), 2022).
# The list shows a part of the results. These are further read-outs of the screen, such as a control signal, another cell line or another target. No call is given for them.
# Legend:
# Assay in all cases: Primary Screen for Target Class Profiling of Small Molecule Inhibitors of Methyltransferases
# [1] = biological target: Glycine N-methyltransferase (Homo sapiens) (UniProt Q14749); settings: purified enzyme, MTase-Glo SAH luminescence; measured here: GNMT inhibition; at 40 µM; stronger effect = lower value
# Outline: (§1)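 Each enzyme was reacted with SAM and its substrate, with compounds tested once at 40 uM; SAH formed was read by MTase-Glo luminescence.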
# [2] = biological target: Guanidinoacetate N-methyltransferase (Homo sapiens) (UniProt Q14353); settings: purified enzyme, MTase-Glo SAH luminescence; measured here: GAMT inhibition; at 40 µM; stronger effect = lower value
# Outline: as §1
# [3] = biological target: Histamine N-methyltransferase (Homo sapiens) (UniProt P50135); settings: purified enzyme, MTase-Glo SAH luminescence; measured here: HNMT inhibition; at 40 µM; stronger effect = lower value
# Outline: as §1
# [4] = biological target: Nicotinamide N-methyltransferase (Homo sapiens) (UniProt P40261); settings: purified enzyme, MTase-Glo SAH luminescence; measured here: NNMT inhibition; at 40 µM; stronger effect = lower value
# Outline: as §1
# [5] = biological target: Phenylethanolamine N-methyltransferase (Homo sapiens) (UniProt P11086); settings: purified enzyme, MTase-Glo SAH luminescence; measured here: PNMT inhibition; at 40 µM; stronger effect = lower value
# Outline: as §1
# On the % scale 0 is the no-effect control and ±100 the full control effect.
SMILES,"activity change, negative = inhibition [1] [%]","activity change, negative = inhibition [2] [%]","activity change, negative = inhibition [3] [%]","activity change, negative = inhibition [4] [%]","activity change, negative = inhibition [5] [%]"
CC(C)Oc1ccc(-c2nc(-c3cccc4c3CCC4NCCC(=O)O)no2)cc1C#N (stereo not given),-7.63,5.8,-0.233,-14.1,3.19
O=C1NCCC[C@@H]1NC(=O)[C@H]1CN(C(=O)C2CCNCC2)CCN1C(=O)c1cccs1,4.35,-9.5,-1.38,-11.1,-8.06
CCCN1C(=O)c2c(C(=O)NCc3ccccc3F)ncn2CC1(C)C(=O)NCCC(C)C (stereo not given),2.34,1.23,-0.475,2.26,5.98
N#Cc1ccc(S(=O)(=O)N2CCc3c(nc(-c4ccc(F)cc4)[nH]c3=O)C2)cc1,-0.723,1.5,0.327,0.148,0.312
Cc1cc2c(cc3n2CC(C)(C(=O)NC2CCCCCC2)N(Cc2cccc(F)c2)C3=O)o1 (stereo not given),6.53,0,9.48,1.58,3.19
COc1ccc(NS(=O)(=O)c2sc3ccc(Cl)cc3c2C)cc1N1CCNCC1,-13.5,-6.57,-13.5,-28.1,-4.33
Cn1c(=O)c2ccc(C(=O)NC3CCCCC3)cc2n2c(=O)n(Cc3cccc(Cl)c3)nc12,1.81,0,6.78,4.85,3.34
CCCCN1C(=O)c2cc(C(=O)NCCc3ccccc3)nn2CC1(C)C(=O)NC1CCCC1 (stereo not given),-0.385,0.111,-14,-1.34,0.484
C=C[C@H]1C(O[C@@H]2O[C@H](CO)[C@@H](O)[C@H](O)[C@H]2O)OC=C2C(=O)N3CCc4c([nH]c5ccccc45)C3CC21 (stereo not given in full),0,0.396,-2.51,-10.7,1.37
O=C(COc1ccc(F)cc1)N1CCOc2ccc(N3CCOCC3)cc2C1,-2.3,0.349,-1.62,-2.39,-1.51
CCCN1C(=O)c2c(C(=O)NCc3ccccc3F)ncn2CC1(C)C(=O)NC1CCCC1 (stereo not given),2.67,0.127,10,2.01,11.4
O=C(COC(=O)C(Cc1c[nH]c2ccccc12)NC(=O)c1ccc(Br)cc1)c1ccc(Cl)cc1 (stereo not given),11.5,0,8.99,3.18,3.37
COC(=O)c1ncn2c1C(=O)N(Cc1ccc(OC)cc1)C(C)(C(=O)NC1CCCCCC1)C2 (stereo not given),7.87,0.291,8.83,7.84,4.79
CCCNC(=O)c1cc2n(n1)CC(C)(C(=O)NC1CCCC1)N(CCC)C2=O (stereo not given),6.81,0,6.04,5.68,3.86
CC(CO)C1CCC2(C)CC3C(CO)CC(O)C3C(C)(O)C/C=C/12 (stereo not given),5.5,7.88,10.2,-5.58,4.25
COc1cccc(CCC(=O)NCc2nnc3c(-c4nc(C)no4)cccn23)c1,-1.6,-0.997,-4.59,-5.64,5.88
Cc1c(C(=O)NCc2cccnc2)nn(-c2ccc(Cl)cc2Cl)c1-c1ccc(Cl)cc1,-4.01,-19.5,4.75,-45.6,-8.69
COc1ccc(CCN2C(=O)c3cc4occc4n3CC2(C)C(=O)NC2CCCCCC2)cc1OC (stereo not given),3.85,13.2,7.53,-43.8,-13
COc1ccc(-c2nc(C)nc3c2CCN([S+](=O)([O-])c2cccs2)CC3)cc1,-15.9,-6.29,-2.57,-18.8,-9.72

SMILES,"activity change, negative = inhibition [1] [%]","activity change, negative = inhibition [2] [%]","activity change, negative = inhibition [3] [%]","activity change, negative = inhibition [4] [%]","activity change, negative = inhibition [5] [%]"
Cc1ccc(O[C@H]2CCOC[C@H]2NC(=O)CCc2c(C)noc2C)cn1,1.19,3.05,2.43,-1.46,17.5
CN(Cc1ccccc1)Cc1cn([C@H]2CO[C@H]3[C@@H]2OC[C@@H]3NC(=O)CCC(=O)O)nn1,-29.8,-22.3,-0.043,-5.01,-27.8
CCOc1ccccc1Nc1nc2c(S(=O)(=O)c3ccccc3)nnn2c2ccccc12,-2.15,2.99,4.25,7.12,-1.24
CN/C(=C\[N+](=O)[O-])NCCSCc1ccc(CN(C)C)o1,-14.3,9.07,0.207,-7.92,1.36
Cc1ccc(CNC(=O)C2(C)Cn3c(nc4ccccc43)C(=O)N2Cc2ccc(C)cc2)cc1 (stereo not given),1.76,0,-0.105,2.56,-0.132
C=C(C)C1CCC2(C(=O)O)CCC3(C)C(CCC4C5(C)C(C=O)C(O)C(C)(C)C5CCC43C)C12 (stereo not given),-5.62,-0.062,-0.244,-17.6,-1.59
Cc1ccc(Cn2nc3n(C)c(=O)c4ccc(C(=O)NCC(C)C)cc4n3c2=O)cc1,-2.79,1.71,5.28,-2.37,2.77
CN(CCCN1C(=O)c2cc3occc3n2CC1(C)C(=O)NC1CCCCCCC1)C1CCCCC1 (stereo not given),-0.726,1.76,-10.9,-7.39,-5.39
Cc1ccc(N2CCN(C(=O)CCc3c(C)nc4c(c3C)c(=O)n(C)c(=O)n4C)CC2)c(C)c1,–,-9.09,–,-10.3,1.64
Cc1cc(Cl)cc(Cl)c1CNCC1(O)CCCNC1 (stereo not given),-2.46,-6.23,-16.5,-3.89,-5.27
CC(C)Oc1ccc(CN2C(=O)c3nc4ccccc4n3CC2(C)C(=O)NC2CCCC2)cc1 (stereo not given),-0.981,-0.51,4.18,-3.63,-3.31
COc1cccc(CNS(=O)(=O)c2ccc3[nH]c(=O)[nH]c3c2)c1,13.7,0.978,15.7,-3.47,-0.423
CCOc1cccc(CN2C[C@@H](Oc3ccccc3)C[C@@H]2C(=O)NC)c1,-3.1,-2.61,-2.09,-5.8,-7.49
Cn1c(=O)[nH]c2ncn(C)c2c1=O,-2.38,4.65,-1.58,-0.962,5.6
Cc1c(Cl)cccc1N1C(=O)c2cc(-c3ccccc3)nn2CC1(C)C(=O)NCc1ccccc1 (stereo not given),3.75,0.017,0.175,-0.1,-0.11
CC(C)[C@](O)(c1ccc2cc(OC(F)F)c(OC(F)F)cc2c1)c1cn[nH]n1,-10.8,7.62,5.04,-6.44,6.44
COc1ccccc1CN[C@H]1CC(C)(C)[C@@H]2C[C@@](C)(O)CC[C@]12CCC(=O)NCCN1CCOCC1,-4.55,-0.902,-18.1,-5.38,-4.34
CCOC(=O)Cn1cccc1-c1nc(-c2ccc(OC)cc2)c(-c2ccc(OC)cc2)s1,-5.57,-31.3,0.712,-57.6,-16
C=C1/C(=C/C=C2\CCC[C@]3(C)[C@@H]([C@H](C)/C=C/[C@H](O)C4CC4)CC[C@@H]23)C[C@@H](O)C[C@@H]1O,-16.2,–,0.19,–,–
